Results taken from the supplement of paper PMC12217912.
The other results are listed elsewhere or left out. The full chains were built here from the parent and the listed change. Inactive controls read about 0.05.

B1: TEV protease; numbered along this chain (parent)
chain: MGESLFKGPRDYNPISSSICHLTNESDGHTTSLYGIGFGPFIITNKHLFRRNNGTLVVQSLHGVFKVKDTTTLQQHLVDGRDMIIIRMPKDFPPFPQKLKFREPQREERICLVTTNFQTKSMSSMVSDTSCTFPSGDGIFWKHWIQTKDGQCGSPLVSTRDGFIVGIHSASNFTNTNNYFTSVPKNFMELLTNQEAQQWVSGWRLNADSVLWGGHKVFMVKPEEPFQPVKEATQL

Variants of: B1
Experiment: raw area under fraction-flipped curve 0-4 h after induction (AUC4h, not background-subtracted), DNA-recorder readout of cleavage of the substrate (dimensionless); higher = more cleavage of the substrate by the protease variant
Conditions: temperature: 34 °C; time window: 0-4 h after rhamnose induction
Protocol: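 In vivo DNA recorder in E. coli TOP10(DE3) ΔrhaA at 34 °C. Each TEVp single-site mutant (parent TEVp 0) is paired with a single-site variant of the 7-mer TEVs (canonical ENLYFQ|S). The substrate sits between flexible linkers in a Bxb1-sfGFP-TEVs-SsrA fusion, so cleavage stabilises Bxb1 and speeds flipping of a recombination array, read by NGS. The value is the raw area under the fraction-flipped curve over 0-4 h after rhamnose induction (AUC4h), with ≥20 reads per time point. It is not background-subtracted; inactive controls average about 0.047.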
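Further: Bxb1 expression induced with 0.2% (w/v) L-rhamnose at OD600 near 0.5, cultures sampled hourly, flipped fraction per protease–substrate barcode pair counted by paired-end Illumina sequencing.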

Row | Variant | area with substrate ENLAFQS | area with substrate ENLCFQS | area with substrate ENLDFQS | area with substrate ENLEFQS | area with substrate ENLFFQS | area with substrate ENLHFQS | area with substrate ENLKFQS | area with substrate ENLLFQS | area with substrate ENLNFQS | area with substrate ENLPFQS | area with substrate ENLQFQS | area with substrate ENLRFQS | area with substrate ENLSFQS | area with substrate ENLMFQS | area with substrate ENLGFQS | area with substrate ENLIFQS | area with substrate ENLWFQS | area with substrate ENLTFQS
1 | MGESLFKGPRDYNPISSSICHLTNESDGHTTSLYGIGFGPFIITNKHLFRRNNGTLVVQSLHGVFKVKDTTTLQQHLVDGRDMIIIRMPKDFPPFPQKLKFREPQREERICLVTTNFQTKSMLSMVSDTSCTFPSGDGIFWKHWIQTKDGQCGSPLVSTRDGFIVGIHSASNFTNTNNYFTSVPKNFMELLTNQEAQQWVSGWRLNADSVLWGGHKVFMVKPEEPFQPVKEATQL [S123L] | 0.0825 | 0.0911 | 0.0673 | 0.0563 | 0.087 | 0.0707 | 0.0732 | 0.0745 | 0.0557 | 0.0711 | 0.0638 | 0.0897 | 0.0678 |  |  |  |  | 
2 | MGESLFKGPRDYNPISSSICHLTNESDGHTTSLYGIGFGPFIITNKHLFRRNNGTLVVQSLHGVFKVKDTTTLQQHLVDGRDMIIIRMPKDFPPFPQKLKFVEPQREERICLVTTNFQTKSMSSMVSDTSCTFPSGDGIFWKHWIQTKDGQCGSPLVSTRDGFIVGIHSASNFTNTNNYFTSVPKNFMELLTNQEAQQWVSGWRLNADSVLWGGHKVFMVKPEEPFQPVKEATQL [R102V] | 0.0517 |  | 0.0402 | 0.0413 | 0.0579 | 0.0627 | 0.041 |  | 0.0741 | 0.0558 |  | 0.0481 | 0.0544 | 0.0613 |  |  |  | 
3 | MGESLFKGPRDYNPISSSICHLTNESDGHTTSLYGIGFGPFIITNKHLFRRNNGTLVVQSLHGVFKVKDTTTLQQHLVDGRDMIIIRMPKDFPPFPQKLKFSEPQREERICLVTTNFQTKSMSSMVSDTSCTFPSGDGIFWKHWIQTKDGQCGSPLVSTRDGFIVGIHSASNFTNTNNYFTSVPKNFMELLTNQEAQQWVSGWRLNADSVLWGGHKVFMVKPEEPFQPVKEATQL [R102S] | 0.0521 | 0.0486 | 0.0535 | 0.048 |  | 0.0525 |  | 0.0487 | 0.0406 | 0.0419 |  | 0.0589 |  |  | 0.0622 | 0.0401 | 0.0375 | 
4 | MGESLFKGPRDYNPISSSICHLTNESDGHTTSLYGIGFGPFIITNKHLFRRNNGTLVVQSLHGVFKVKDTTTLQQHLVDGRDMIIIRMPKDFPPFPQKLKFLEPQREERICLVTTNFQTKSMSSMVSDTSCTFPSGDGIFWKHWIQTKDGQCGSPLVSTRDGFIVGIHSASNFTNTNNYFTSVPKNFMELLTNQEAQQWVSGWRLNADSVLWGGHKVFMVKPEEPFQPVKEATQL [R102L] | 0.0577 | 0.0536 | 0.0492 | 0.0272 | 0.0481 | 0.0482 | 0.0464 | 0.0378 | 0.0563 | 0.0502 |  | 0.0621 | 0.0169 | 0.0483 |  |  |  | 
5 | MGESLFKGPRDYNPISSSICHLTNESDGHTTSLYGIGFGPFIITNKHLFRRNNGTLVVQSLHGVFKVKDTTTLQQHLVDGRDMIIIRMPKDFPPFPQKLKFREPQRVERICLVTTNFQTKSMSSMVSDTSCTFPSGDGIFWKHWIQTKDGQCGSPLVSTRDGFIVGIHSASNFTNTNNYFTSVPKNFMELLTNQEAQQWVSGWRLNADSVLWGGHKVFMVKPEEPFQPVKEATQL [E107V] | 0.0649 | 0.0706 | 0.0496 | 0.0615 | 0.0861 | 0.0743 | 0.0856 |  | 0.0844 | 0.0656 | 0.0582 | 0.0834 | 0.0718 | 0.0635 |  | 0.0695 |  | 
6 | MGESLFKGPRDYNPISSSICHLTNESDGHTTSLYGIGFGPFIITNKHLFRRNNGTLVVQSLHGVFKVKDTTTLQQHLVDGRDMIIIRMPKDFPPFPQKLKFREPQRQERICLVTTNFQTKSMSSMVSDTSCTFPSGDGIFWKHWIQTKDGQCGSPLVSTRDGFIVGIHSASNFTNTNNYFTSVPKNFMELLTNQEAQQWVSGWRLNADSVLWGGHKVFMVKPEEPFQPVKEATQL [E107Q] | 0.0814 | 0.0801 | 0.0835 |  | 0.0833 | 0.0696 | 0.0657 | 0.0738 | 0.0575 | 0.0393 | 0.0539 |  | 0.0657 |  |  |  | 0.0724 | 0.0546
7 | MGESLFKGPRDYNPISSSICHLTNESDGHTTSLYGIGFGPFIITNKHLFRRNNGTLVVQSLHGVFKVKDTTTLQQHLVDGRDMIIIRMPKDFPPFPQKLKFREPQRTERICLVTTNFQTKSMSSMVSDTSCTFPSGDGIFWKHWIQTKDGQCGSPLVSTRDGFIVGIHSASNFTNTNNYFTSVPKNFMELLTNQEAQQWVSGWRLNADSVLWGGHKVFMVKPEEPFQPVKEATQL [E107T] | 0.0683 |  |  |  | 0.0809 | 0.0798 |  |  | 0.052 | 0.0943 |  |  |  |  |  |  | 0.0614 | 0.0813
8 | MGESLFKGPRDYNPISSSICHLTNESDGHTTSLYGIGFGPFIITNKHLFRRNNGTLVVQSLHGVFKVKDTTTLQQHLVDGRDMIIIRMPKDFPPFPQKLKFREPQREERWCLVTTNFQTKSMSSMVSDTSCTFPSGDGIFWKHWIQTKDGQCGSPLVSTRDGFIVGIHSASNFTNTNNYFTSVPKNFMELLTNQEAQQWVSGWRLNADSVLWGGHKVFMVKPEEPFQPVKEATQL [I110W] | 0.0546 | 0.0676 | 0.0638 |  | 0.0536 |  |  |  |  |  |  |  | 0.0602 |  |  |  | 0.0419 | 
9 | MGESLFKGPRDYNPISSSICHLTNESDGHTTSLYGIGFGPFIITNKHLFRRNNGTLVVQSLHGVFKVKDTTTLQQHLVDGRDMIIIRMPKDFPPFPQKLKFREPQREERICLVTTNFQTKSMSSFVSDTSCTFPSGDGIFWKHWIQTKDGQCGSPLVSTRDGFIVGIHSASNFTNTNNYFTSVPKNFMELLTNQEAQQWVSGWRLNADSVLWGGHKVFMVKPEEPFQPVKEATQL [M125F] | 0.0737 |  |  |  | 0.0715 | 0.0589 | 0.0658 | 0.0747 | 0.0641 |  | 0.0697 | 0.0772 |  |  |  | 0.0353 |  | 
